Laboratory results: PubChem BioAssay AID1745853 (National Center for Advancing Translational Sciences (NCATS), 2022)
Where “and” joins values, the source holds several entries; their conditions need not be identical. Identical values can stand only once. The list shows a part of the results. These are further read-outs of the screen, such as a control signal, another cell line or another target. No call is given for them.

Legend:
Assay in all cases: Primary Screen for Target Class Profiling of Small Molecule Inhibitors of Methyltransferases
[1] = target: Glycine N-methyltransferase (Homo sapiens) (UniProt Q14749); details: purified enzyme, MTase-Glo SAH luminescence; measured here: GNMT inhibition; at 40 µM; stronger effect = lower value
Summary of the method: (§1)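 Each enzyme was reacted with SAM and its substrate, with compounds tested once at 40 uM; SAH formed was read by MTase-Glo luminescence.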

[2] = target: Guanidinoacetate N-methyltransferase (Homo sapiens) (UniProt Q14353); details: purified enzyme, MTase-Glo SAH luminescence; measured here: GAMT inhibition; at 40 µM; stronger effect = lower value
Summary of the method: as §1

[3] = target: Histamine N-methyltransferase (Homo sapiens) (UniProt P50135); details: purified enzyme, MTase-Glo SAH luminescence; measured here: HNMT inhibition; at 40 µM; stronger effect = lower value
Summary of the method: as §1

[4] = target: Nicotinamide N-methyltransferase (Homo sapiens) (UniProt P40261); details: purified enzyme, MTase-Glo SAH luminescence; measured here: NNMT inhibition; at 40 µM; stronger effect = lower value
Summary of the method: as §1

[5] = target: Phenylethanolamine N-methyltransferase (Homo sapiens) (UniProt P11086); details: purified enzyme, MTase-Glo SAH luminescence; measured here: PNMT inhibition; at 40 µM; stronger effect = lower value
Summary of the method: as §1
On the % scale 0 is the no-effect control and ±100 the full control effect.

SMILES	activity change, negative = inhibition [1]	activity change, negative = inhibition [2]	activity change, negative = inhibition [3]	activity change, negative = inhibition [4]	activity change, negative = inhibition [5]
CCCNC(=O)c1ncn2c1C(=O)N(C1CC1)C(C)(C(=O)NCc1ccccc1OC)C2 (stereo unspecified)	-3.29%	0%	2.06%	-3.91%	0.084%
CC(C)OCCCn1c(=O)c2ccccc2n2c(SCc3ccc(Cl)cc3)nnc12	-7.96%	2.83%	6.5%	-7.98%	5.65%
CCOc1ccccc1NC(=O)N1Cc2c(sc3c2CCCC3)-n2cccc2C1c1cccc(OC)c1 (stereo unspecified)	-7.32%	2.7%	0.565%	-10.5%	1.48%
CCCC1c2ccc(C)n2CCN1C(=O)Nc1ccc(OC)cc1OC (stereo unspecified)	-1.43%	8.4%	-6.88%	3.4%	-4.15%
O=C(Cc1ccc(F)cc1)NC1CCN(c2cc(-c3ccccc3)[nH]n2)CC1	-5.17%	-18.5%	-3.32%	-16.8%	-5.93%
CCCn1c(=O)c2ccc(C(=O)NC(C)C)cc2n2c(SCC(=O)Nc3ccccc3OC)nnc12	1.51%	2.28%	6.51%	-3.81%	0.103%
CC(=O)Nc1c2n(c3ccc(F)cc13)CC(C)(C(=O)NC1CCCC1)N(c1ccc(C)cc1C)C2=O (stereo unspecified)	-0.477%	0.991%	2.25%	0.74%	0.329%
O=C1Nc2ccccc2-c2nc3ccccc3c(=O)n2-c2c(O)cccc21	-1.83%	-5.79%	2.67%	-12.2%	-8.94%
CCCN1C(=O)c2c(C(=O)NCc3ccc(OC)cc3)ncn2CC1(C)C(=O)NC1CCCC1 (stereo unspecified)	3.67%	0.743%	7.27%	1.16%	11.8%
COc1cccc(-c2ccc(C(=O)NCCNC(=O)c3ccccc3OC)cc2)c1	-11.4%	0.323%	-2.19%	-8.75%	-0.887%
COc1ccc(-c2cc3n(n2)CC(C)(C(=O)NCc2ccccc2)N(C2CC2)C3=O)cc1 (stereo unspecified)	-5.66%	0%	0.428%	1.18%	-1.96%
COc1ccc2cc3n(c2c1)CC(C)(C(=O)NCC1CCCO1)N(Cc1cccs1)C3=O (stereo unspecified)	9.09%	2.19%	6.42%	13.1%	6.27%
CC1CCCC(NC(=O)C2c3cccn3CC(=O)N2c2ccc(Cl)cc2)C1C (stereo unspecified)	1.21%	0.643%	-2.94%	-1.04%	-4.65%
COc1ccc2cc3n(c2c1)CC(C)(C(=O)NC1CCCCC1)N(Cc1ccccn1)C3=O (stereo unspecified)	-2.02%	1.42%	-0.38%	-15.7%	-2.7%
CCCC1c2ccc(C)n2CCN1C(=O)Nc1ccc(CC(=O)OCC)cc1 (stereo unspecified)	-1.13%	6.32%	-11.9%	2.55%	-6.75%
CCC(C)NC(=O)c1ccc2c(=O)n(C)c3nn(CC(=O)NCc4ccccc4Cl)c(=O)n3c2c1 (stereo unspecified)	1.42%	0%	2.73%	-9.41%	-1.4%
O=C(/C=C/c1ccc(O)cc1)OC[C@H]1O[C@H](O[C@@]2(CO)O[C@@H](CO)[C@H](O)[C@H]2O)[C@H](O)[C@@H](O)[C@@H]1O	3.13%	1.63%	9.6%	-12.8%	3.21%
COC(=O)CC(O)CC(O)/C=C/c1c(C)ccc2c1C(O)CC(C)C2 (stereo unspecified)	0.21%	7.28%	10.9%	-4.82%	3.71%
CCOC(=O)CNC(=O)C1(C)Cn2c(ccc2-c2ccco2)C(=O)N1Cc1ccc(OC)cc1 (stereo unspecified)	-0.8%	1.85%	4.52%	5.66%	0.89%
COc1cc(C(=O)N2CCC(Cc3nc(C(C)C)no3)CC2)cc(OC)c1OC	-1.16%	0.774%	-0.606%	-7.35%	-1%

SMILES	activity change, negative = inhibition [1]	activity change, negative = inhibition [2]	activity change, negative = inhibition [3]	activity change, negative = inhibition [4]	activity change, negative = inhibition [5]
O=C(CCc1nnc2n(Cc3ccc(Cl)cc3)c(=O)c3ccccc3n12)NC1CCCCC1	3.27%	2.88%	11.7%	10.6%	3.32%
COc1ccc(C(=O)Nc2sc3c(c2C(N)=O)CCCC3)cc1OC		11.3%		-7.93%	7.31%
CCOC(=O)c1cc2n(n1)CC(C)(C(=O)NC1CCCCC1)N(Cc1ccc(OC(C)C)cc1)C2=O (stereo unspecified)	2.99%	0%	-0.661%	-2.71%	4.04%
COc1ccc(NC(=O)C(C)Oc2ccc3c(-c4ccccc4)cc(=O)oc3c2)cc1 (stereo unspecified)	0.954%	0%	1.84%	1.83%	-1.29%
CC(=O)Nc1c2n(c3ccc(F)cc13)CC(C)(C(=O)NC1CCCCC1)N(Cc1ccccc1)C2=O (stereo unspecified)	-3.01%	2.6%	3.67%	-3.95%	-2.07%
CNC(=O)N1CCC(C2CCN(C(=O)c3cccs3)C2)CC1 (stereo unspecified)	-1.94%	-4.48%	1.17%	-4.42%	-0.448%
CCCN1C(=O)c2c(C(=O)NCc3ccc(C)o3)ncn2CC1(C)C(=O)NCCC(C)C (stereo unspecified)	0.143%	0%	0.759%	-0.003%	0.64%
O=C1Nc2ccccc2CC12CCCN2Cc1ccccc1 (stereo unspecified)	-4.89%	-0.07%	-2.51%	-3.45%	-1.19%
N[C@@H](Cn1ccc(=O)c(O)c1)C(=O)O	3.22% and 3.86%	-1.5% and 13.6%	-0.931% and 5.39%	-12.3% and 0.303%	-7.05% and 12.2%
CN1CCN(CCCNC(=O)c2cc3n(n2)CC(C)(C(=O)NCc2ccccc2)N(C)C3=O)CC1 (stereo unspecified)	1.86%	4.19%	7.17%	6.13%	4.37%
OC(COc1ccccc1CNCC1CCOCC1)CN1CCSCC1 (stereo unspecified)	-3.13%	-4.59%	-4.03%	-4.44%	0.471%
COc1cc(O)c2c(=O)c(O)c(-c3ccc(O)c(O)c3)oc2c1		2.75%		-10.8%	-5.2%
Cc1ccc(Cn2c(=O)c3ccccc3n3c(CCC(=O)NCCC4=CCCCC4)nnc23)cc1	-6.1%	1.06%	4.15%	4.03%	-1.59%
O=C(CCc1nnc2n(Cc3ccc(F)cc3)c(=O)c3ccccc3n12)N1CCC(N2CCCCC2)CC1	3.55%	0%	-50.9%	8.6%	1%
CC(N)(Cc1ccc(O)c(O)c1)C(=O)O (stereo unspecified)	-51.3%	6.84%	-2.67%	-4.62%	5.69%
CCN1C(=O)c2cc(C(=O)Nc3ccc(C)cc3C)nn2CC1(C)C(=O)NC1CCCC1 (stereo unspecified)	2.02%	0.714%	-5.29%	2.17%	1.12%
CCOc1ccc(CN2C(=O)c3cc(-c4ccccc4)nn3CC2(C)C(=O)NCc2ccccc2OC)cc1 (stereo unspecified)	9.57%	2.97%	7.18%	8.41%	3.2%
COCCN1CC(c2n[nH]c(C3CCOCC3)n2)CCC1=O (stereo unspecified)	-2.86%	3.05%	-0.716%	-6.77%	-5.64%
O=C(CCn1ccc2cc(S(=O)(=O)N3CCCC3)ccc21)NCc1cccc(F)c1	7.76%	0.535%	8.27%	12.4%	6.49%
CCOC(=O)C1(Cc2ccccc2F)CCCN(C(=O)c2ccc3c(c2)OCCO3)C1 (stereo unspecified)	-6.74%	-2.92%	-2.62%	-11.1%	-1.67%

SMILES	activity change, negative = inhibition [1]	activity change, negative = inhibition [2]	activity change, negative = inhibition [3]	activity change, negative = inhibition [4]	activity change, negative = inhibition [5]
Cn1cccc1CN1CCC2(CC1)COc1ccccc1[S+](=O)([O-])N2	-8.91%	-7.18%	-7.51%	-7.85%	-14.5%
COCCCN1CC2(CCC1=O)CCN(C(=O)Nc1ccccc1F)CC2	-5.92%	-4.99%	-1.21%	-11.4%	-12.9%
CC1=C(CCC(C)CC(=O)O)[C@@]2(C)CCCC(C)(C)C2CC1=O (stereo partly specified)	-1.88%	-1.12%	6.99%	-16.1%	-7.76%
O=C(/C=C/c1ccccc1)O[C@@H]1[C@@H](CO)O[C@@](CO)(O[C@H]2O[C@H](CO)[C@@H](O)[C@H](O)[C@H]2O)[C@H]1O	1.97%	6.77%	4.84%	-5.58%	4.67%
CCCCc1nc(C)c(CC(=S)N(C)C)c(=O)n1Cc1ccc(-c2ccccc2-c2nn[nH]n2)cc1	-6.76%	-9.99%	7.92%	-28.4%	-6.08%
CCN1C(=O)c2cc(C(=O)NCCCN3CCc4ccccc4C3)nn2CC1(C)C(=O)NC1CCCC1 (stereo unspecified)	4.24%	0.056%	-3.71%	11.7%	2.39%
CC(C)(C)c1cc2n(n1)CC(C)(C(=O)NCc1ccccc1)N(Cc1ccccc1Cl)C2=O (stereo unspecified)	4.9%	0%	5.21%	-6.44%	3.95%
COc1cccc(CNC(=O)Cn2nc3n(Cc4ccccc4)c(=O)c4ccccc4n3c2=O)c1	1.77%	0%	3.05%	1.44%	1.89%
CC1=C(C(=O)O)/C(=C\CO[C@@H]2O[C@H](CO)[C@@H](O)[C@H](O)[C@H]2O)C(OC(=O)/C=C\c2ccc(O)cc2)C1 (stereo partly specified)	3.34%	1.92%	7.42%	-8.84%	-0.254%
Cc1ccc(C)c(C(=O)CSc2nnc3n(CC(C)C)c(=O)c4ccc(C(=O)NC(C)C)cc4n23)c1	2.87%	-1.21%	2.47%	12.7%	4.65%
COc1ccccc1CCN1C(=O)c2ccc(-c3ccco3)n2CC1(C)C(=O)NC1CCCCC1 (stereo unspecified)	-5.16%	0%	-1.58%	-4.44%	-2.98%
COCCCN1C(=O)c2cc3occc3n2CC1(C)C(=O)NC1CCCCCC1 (stereo unspecified)	0.559%	3.23%	-2.25%	4.63%	-2.61%
CCc1cc2c(cc3n2CC(C)(C(=O)NC2CCCCC2)N(c2cccc(OC)c2)C3=O)s1 (stereo unspecified)	-1.52%	3.63%	-4.66%	-5.22%	-9.25%
COc1cncc(Nc2cnc3ccc(N(C)Cc4ccc(F)cc4)nn23)c1	-27.8%	-17.6%	-41.2%	-36%	-10.3%
CC1(C(=O)NC2CCCCC2)Cn2c(cc3sccc32)C(=O)N1C1CCCCCC1 (stereo unspecified)	4.17%	0.337%	5.2%	2.98%	1.46%
Cc1ccccc1CN1C(=O)c2cc3occc3n2CC1(C)C(=O)NC1CCC(C)CC1 (stereo unspecified)	3.75%	-4.12%	6.94%	3.07%	4.27%
COc1cc2ncnc(N3CCC(Oc4cnc5ccccc5n4)C3)c2cc1OC (stereo unspecified)	-3.28%	11.7%	-2.42%	-14.2%	-9.6%
COC(=O)C1=CO[C@@H](O[C@@H]2O[C@H](CO)[C@@H](O)[C@H](O)[C@H]2O)[C@@H]2[C@@](C)(O)[C@@H](O)C[C@]12O	0.281%	3.48%	-0.167%	-5.58%	1.39%
Cc1ccc(CNC(=O)CSc2nnc3n(Cc4ccc(F)cc4)c(=O)c4ccccc4n23)cc1	5.05%	0%	8.54%	3.23%	5.19%
